# In the supplement of paper PMC5499739:
# In all, about 16,000 sequences were measured (“Z-score”: median about -0.37, highest 2% from about 3.2 on). Some of the results follow.
# Tested on: RBM10 RRM1-ZnF (GST-tagged construct)
# Experiment: RNAcompete 7-mer binding Z-score; higher = stronger binding preference
# Description: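 RNAcompete: 20 pmol GST-tagged RBM10 RNA-binding constructs were incubated with a designed RNA pool of about 241,000 sequences up to 41 nt (1.5 nmol) on glutathione beads for 30 min at 4 °C and washed. Bound RNAs were identified by microarray hybridisation. Each RNA 7-mer is scored by a one-sided Z-score of its enrichment, computed over probes that contain the 7-mer within longer pool sequences.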
row,Sequence,RNAcompete 7-mer binding Z-score
1,CGAGCUC,-0.552
2,CUGUUCG,-0.591
3,UUUGCGC,-0.815
4,GGGACGA,2.11
5,AGGUCCA,-0.483
6,AAGCUAA,-0.337
7,CAAUCUG,-0.75
8,UCGGCUG,0.043
9,CAGUCUC,-0.785
10,GGGCUCC,0.586
11,UUCGAGC,-0.574
12,CUGCAGU,-0.376
13,GCAGGAU,1.41
14,GAGUGAU,0.729
15,ACGACCA,-0.552
16,UGCCGCU,-0.633
17,ACGACAC,-0.496
18,AUCAAGG,0.654
19,AGAGGGG,2.11
20,UCUGCCA,-0.857
21,GUUGCAU,-0.145
22,UACGACC,-0.733
23,AGGAGUU,1.51

row,Sequence,RNAcompete 7-mer binding Z-score
1,GGCAUCU,-0.188
2,GUACAGG,2.33
3,GGCACCG,0.313
4,GUAACCG,0.111
5,GAGCGGC,1.44
6,AAGUCUG,-0.47
7,UAGCGCA,-0.487
8,GAGUCUC,-0.376
9,GCUCACC,-0.636
10,CUAGUGC,-0.308
11,CGGCCGG,-0.0609
12,AUUGAGC,-0.0252
13,AAGCCGG,0.0918
14,AGCCUUG,-0.815
15,AGAUGGA,2.97
16,UUCCCAU,-0.792
17,GUCAUUC,-0.759
18,UAGCGUG,0.329
19,GAUCGUA,-0.363
20,CAAUUGC,-0.717
21,CCUCGCA,-0.5
22,GUUUAGC,-0.405
23,AAUCGCU,-0.759

row,Sequence,RNAcompete 7-mer binding Z-score
1,UACUCAU,-0.847
2,UCGGGCA,0.491
3,UAGAUAA,-0.0609
4,UUUACUG,-0.6
5,GCACCGC,-0.139
6,UGUUUCG,-0.116
7,GAGCCGC,-0.467
8,GUCGUCA,-0.0122
9,GCAACCC,-0.613
10,CUGCAAG,-0.493
11,GGUAAAA,1.78
12,CCUCGAA,-0.639
13,GUAGGCU,0.599
14,GCCGGUA,-0.0577
15,GUUCCCC,-0.256
16,AGUCUCG,-0.428
17,UAAUAAC,-0.61
18,CUCACGA,-0.535
19,CGCUUGC,-0.539
20,UUGUGAA,-0.00246
21,AACCUCU,-0.776
22,CUCCAAA,-0.86
23,UUCUAGG,0.0235

row,Sequence,RNAcompete 7-mer binding Z-score
1,GGUCCAC,-0.106
2,GAAUCGA,-0.129
3,UAGAAAG,1.17
4,GGCUCCC,0.183
5,GCCCCUU,-0.685
6,CGCAUCA,-0.672
7,GUUUGUA,-0.116
8,ACUUCCU,-0.932
9,GCCGCUG,-0.116
10,AAAUCGU,-0.613
11,CAUUUUA,-0.886
12,CUAGUGG,0.703
13,CCACGUG,-0.22
14,GGAUUCG,0.417
15,CUCACCG,-0.48
16,CUGGGCA,0.748
17,CCCGGAG,0.0105
18,ACUGUUU,-0.824
19,UUUCUGG,-0.214
20,AAAAGGG,3.8
21,GUGGGAA,3.62
22,UAUCGCU,-0.587
23,UCCAAAA,-0.876

row,Sequence,RNAcompete 7-mer binding Z-score
1,UUUCCUG,-0.727
2,UUUCAGA,-0.73
3,AUAUUAA,-0.386
4,UCCGUUU,-0.805
5,ACUCGAC,-0.652
6,AUGUAAG,0.397
7,UUGUUGC,-0.714
8,GACCGGU,-0.0967
9,UUGCGAG,0.0983
10,CUAGAAU,-0.454
11,CUUUUUG,-0.821
12,CAUGCUA,-0.574
13,GAGAGUA,0.586
14,CCCAGUC,-0.604
15,UAGUGUA,0.462
16,AUCCAUU,-0.841
17,CUAAUCC,-0.746
18,UCGCCCC,-0.461
19,UGCGACU,-0.178
20,GAUCCUC,-0.883
21,GGCUUUA,-0.418
22,UUUUCAG,-0.561
23,GCCCACU,-0.587

row,Sequence,RNAcompete 7-mer binding Z-score
1,AAGACGG,1.56
2,CUAAUUG,-0.617
3,GCAGUCG,0.446
4,GGAAAAG,3.24
5,AGUCGAG,0.241
6,GAGCCUA,-0.639
7,CUGACCC,-0.591
8,GACGCCC,-0.516
9,AUGAGAG,0.972
10,UCUGAGC,-0.61
11,CCUUAAA,-0.776
12,AGGUAAA,1.82
13,GCCACGU,-0.477
14,GCUGGUA,0.959
15,UCACUAC,-0.587
16,GGAGCGU,1.78
17,GACCCGU,-0.714
18,GGCGCGC,0.612
19,CGUGGCA,0.423
20,GCAUCAC,-0.48
21,CCCUAUU,-0.766
22,CUGUCUC,-0.681
23,CAUUGUA,-0.659

row,Sequence,RNAcompete 7-mer binding Z-score
1,CGUUGGC,0.15
2,CAGGAGG,2.26
3,AUUACGG,0.449
4,GCGCGAC,-0.318
5,UCGGCGU,0.000789
6,CAUGAAA,-0.344
7,GCCUGCA,-0.409
8,ACUCUCA,-0.733
9,UUUCGCC,-0.85
10,AAUGGUU,2.44
11,GACCUAC,-0.776
12,UCAGAAG,0.00404
13,UCUCCAG,-0.552
14,AUGCCGU,-0.688
15,CAAUUUU,-0.971
16,AGCGAGG,2.98
17,UGGCCCG,-0.158
18,AUGAGAC,-0.126
19,GUCUAUU,-0.681
20,ACAACCA,-0.464
21,GUUUGAA,-0.246
22,UAAGUAG,0.69
23,GGGAGAU,2.7

row,Sequence,RNAcompete 7-mer binding Z-score
1,CUUUGGC,-0.867
2,CGCUGCG,-0.116
3,AAGUCCG,-0.571
4,UACCUAA,-0.698
5,CGUGAUC,-0.704
6,UAUUCAG,-0.464
7,CGCCAAG,-0.448
8,UUGCCGG,-0.334
9,CUGGCAG,0.0105
10,CCUUGCG,-0.513
11,UACUGGU,0.183
12,CGGCGGG,2.07
13,CAGGCGA,0.742
14,CCCUACU,-0.746
15,UCUGACG,-0.535
16,GGGACCU,0.641
17,GCAACCG,-0.529
18,CGAUUCC,-0.889
19,GGUCAGA,0.651
20,UCCGCGG,-0.0512
21,CCUCAAA,-0.824
22,CGGAUCA,0.267
23,UCGAAGA,-0.171
